# Experimental data: the supplement of paper PMC8728848
# This is one part of the list.
# Assays:
# Test in all cases: glycan array binding signal (z-score within array); higher = stronger binding
# Conditions in all cases: glycan notation: IUPAC condensed, linker removed
# [1] = biological target: Neu5Ac(a2-3)Gal(b1-3)[Neu5Ac(a2-6)]GlcNAc(b1-3)[Fuc(a1-3)[Gal(b1-4)]GlcNAc(b1-6)]Gal(b1-4)Glc
# Summary of the method: (§1)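 The Consortium for Functional Glycomics database supplied 3228 glycan arrays, of which those lacking an available protein sequence were dropped. The binding signal, a within-array Z-score, was averaged across arrays of the same protein sequence and across linkers. Negative scores can be read as non-binding.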
# [2] = biological target: Neu5Ac(a2-3)Gal(b1-4)Glc
# Summary of the method: as §1
# [3] = biological target: Neu5Ac(a2-3)Gal(b1-4)GlcNAc
# Summary of the method: as §1
# [4] = biological target: Neu5Ac(a2-3)Gal(b1-4)GlcNAc(b1-2)Man
# Summary of the method: as §1
# [5] = biological target: Neu5Ac(a2-3)Gal(b1-4)GlcNAc(b1-2)Man(a1-3)[GlcNAc(b1-2)Man(b1-4)GlcNAc(b1-2)Man(a1-6)]Man(b1-4)GlcNAc(b1-4)GlcNAc
# Summary of the method: as §1
# [6] = biological target: Neu5Ac(a2-3)Gal(b1-4)GlcNAc(b1-2)Man(a1-3)[Neu5Ac(a2-3)Gal(b1-4)GlcNAc(b1-2)Man(a1-6)]Man(b1-4)GlcNAc(b1-4)[Fuc(a1-6)]GlcNAc
# Summary of the method: as §1
# [7] = biological target: Neu5Ac(a2-3)Gal(b1-4)GlcNAc(b1-2)Man(a1-3)[Neu5Ac(a2-6)Gal(b1-4)GlcNAc(b1-2)Man(a1-6)]Man(b1-4)GlcNAc(b1-4)GlcNAc
# Summary of the method: as §1
# [8] = biological target: Neu5Ac(a2-3)Gal(b1-4)GlcNAc(b1-2)[Neu5Ac(a2-3)Gal(b1-4)GlcNAc(b1-6)]Man(a1-6)[Neu5Ac(a2-3)Gal(b1-4)GlcNAc(b1-2)Man(a1-3)]Man(b1-4)GlcNAc(b1-4)GlcNAc
# Summary of the method: as §1
# [9] = biological target: Neu5Ac(a2-3)Gal(b1-4)GlcNAc(b1-3)Gal
# Summary of the method: as §1
# [10] = biological target: Neu5Ac(a2-3)Gal(b1-4)GlcNAc(b1-3)Gal(b1-3)GlcNAc
# Summary of the method: as §1
# [11] = biological target: Neu5Ac(a2-3)Gal(b1-4)GlcNAc(b1-3)Gal(b1-4)GlcNAc
# Summary of the method: as §1
# [12] = biological target: Neu5Ac(a2-3)Gal(b1-4)GlcNAc(b1-3)Gal(b1-4)GlcNAc(b1-3)Gal(b1-4)GlcNAc
# Summary of the method: as §1
# [13] = biological target: Neu5Ac(a2-3)Gal(b1-4)GlcNAc(b1-3)Gal(b1-4)[Fuc(a1-3)]GlcNAc
# Summary of the method: as §1
# [14] = biological target: Neu5Ac(a2-3)Gal(b1-4)GlcNAc(b1-3)GalNAc
# Summary of the method: as §1
# [15] = biological target: Neu5Ac(a2-3)Gal(b1-4)GlcNAc(b1-3)[Neu5Ac(a2-3)Gal(b1-4)GlcNAc(b1-6)]GalNAc
# Summary of the method: as §1
# [16] = biological target: Neu5Ac(a2-3)Gal(b1-4)GlcNAc(b1-6)GalNAc
# Summary of the method: as §1
# [17] = biological target: Neu5Ac(a2-3)Gal(b1-4)GlcNAc(b1-6)[Gal(b1-3)]GalNAc
# Summary of the method: as §1
# [18] = biological target: Neu5Ac(a2-3)Gal(b1-4)GlcNAc(b1-6)[Neu5Ac(a2-3)Gal(b1-3)]GalNAc
# Summary of the method: as §1
# [19] = biological target: Neu5Ac(a2-3)Gal(b1-4)GlcNAc6S
# Summary of the method: as §1
# [20] = biological target: Neu5Ac(a2-3)Gal(b1-4)[Fuc(a1-3)]GlcNAc
# Summary of the method: as §1
# [21] = biological target: Neu5Ac(a2-3)Gal(b1-4)[Fuc(a1-3)]GlcNAc(b1-3)Gal
# Summary of the method: as §1
# [22] = biological target: Neu5Ac(a2-3)Gal(b1-4)[Fuc(a1-3)]GlcNAc(b1-3)Gal(b1-4)GlcNAc
# Summary of the method: as §1
# [23] = biological target: Neu5Ac(a2-3)Gal(b1-4)[Fuc(a1-3)]GlcNAc(b1-3)Gal(b1-4)[Fuc(a1-3)]GlcNAc(b1-3)Gal(b1-4)[Fuc(a1-3)]GlcNAc
# Summary of the method: as §1
# [24] = biological target: Neu5Ac(a2-3)Gal(b1-4)[Fuc(a1-3)]GlcNAc(b1-3)GalNAc
# Summary of the method: as §1
# [25] = biological target: Neu5Ac(a2-3)Gal(b1-4)[Fuc(a1-3)]GlcNAc(b1-6)[Gal(b1-3)]GalNAc
# Summary of the method: as §1
# [26] = biological target: Neu5Ac(a2-3)Gal(b1-4)[Fuc(a1-3)]GlcNAc6S
# Summary of the method: as §1
# [27] = biological target: Neu5Ac(a2-3)Gal6S(b1-4)GlcNAc
# Summary of the method: as §1
# [28] = biological target: Neu5Ac(a2-3)Gal6S(b1-4)[Fuc(a1-3)]GlcNAc
# Summary of the method: as §1
# [29] = biological target: Neu5Ac(a2-3)GalNAc
# Summary of the method: as §1
# [30] = biological target: Neu5Ac(a2-3)GalNAc(b1-4)GlcNAc
# Summary of the method: as §1
# [31] = biological target: Neu5Ac(a2-3)[GalNAc(b1-4)]Gal(b1-4)Glc
# Summary of the method: as §1
# [32] = biological target: Neu5Ac(a2-3)[GalNAc(b1-4)]Gal(b1-4)GlcNAc
# Summary of the method: as §1
# [33] = biological target: Neu5Ac(a2-3)[GalNAc(b1-4)]Gal(b1-4)GlcNAc(b1-3)GalNAc
# Summary of the method: as §1
# [34] = biological target: Neu5Ac(a2-3)[Neu5Ac(a2-6)]GalNAc
# Summary of the method: as §1
# [35] = biological target: Neu5Ac(a2-6)Gal
# Summary of the method: as §1
# [36] = biological target: Neu5Ac(a2-6)Gal(b1-3)GlcNAc(b1-3)[Gal(b1-4)GlcNAc(b1-6)]Gal(b1-4)Glc
# Summary of the method: as §1
# [37] = biological target: Neu5Ac(a2-6)Gal(b1-4)Glc
# Summary of the method: as §1
# [38] = biological target: Neu5Ac(a2-6)Gal(b1-4)GlcNAc
# Summary of the method: as §1
# [39] = biological target: Neu5Ac(a2-6)Gal(b1-4)GlcNAc(b1-2)Man(a1-3)Man(b1-4)GlcNAc(b1-4)GlcNAc
# Summary of the method: as §1
# [40] = biological target: Neu5Ac(a2-6)Gal(b1-4)GlcNAc(b1-2)Man(a1-3)[Gal(b1-4)GlcNAc(b1-2)Man(a1-6)]Man(b1-4)GlcNAc(b1-4)GlcNAc
# Summary of the method: as §1
# [41] = biological target: Neu5Ac(a2-6)Gal(b1-4)GlcNAc(b1-2)Man(a1-3)[GlcNAc(b1-2)Man(a1-6)]Man(b1-4)GlcNAc(b1-4)GlcNAc
# Summary of the method: as §1
# [42] = biological target: Neu5Ac(a2-6)Gal(b1-4)GlcNAc(b1-2)Man(a1-3)[GlcNAc(b1-2)Man(b1-4)GlcNAc(b1-2)Man(a1-6)]Man(b1-4)GlcNAc(b1-4)GlcNAc
# Summary of the method: as §1
binder,measurement,setting,value
SalT (Orysata sativa) (protein) MTLVKIGLWGGNGGSAQDISVPPKKLLGVTIYSSDAIRSIAFNYIGVDGQEYAIGPWGGGEGTSTEIKLGSSEHIKEISGTHGPVYDLADIVTYLKIVTSANNTYEAGVPNGKEFSIPLQDSGHVVGFFGRSGTLIDAIGIYVHPILEQKLISEEDLNSAVDHHHHHH,glycan array binding signal (z-score),[1],-0.308
same,glycan array binding signal (z-score),[2],-0.309
same,glycan array binding signal (z-score),[3],-0.304
same,glycan array binding signal (z-score),[4],-0.262
same,glycan array binding signal (z-score),[5],2.11
same,glycan array binding signal (z-score),[6],0.271
same,glycan array binding signal (z-score),[7],2.55
same,glycan array binding signal (z-score),[8],0.818
same,glycan array binding signal (z-score),[9],-0.311
same,glycan array binding signal (z-score),[10],-0.311
same,glycan array binding signal (z-score),[11],-0.312
same,glycan array binding signal (z-score),[12],-0.308
same,glycan array binding signal (z-score),[13],-0.309
same,glycan array binding signal (z-score),[14],-0.308
same,glycan array binding signal (z-score),[15],-0.309
same,glycan array binding signal (z-score),[16],-0.308
same,glycan array binding signal (z-score),[17],-0.309
same,glycan array binding signal (z-score),[18],-0.309
same,glycan array binding signal (z-score),[19],-0.309
same,glycan array binding signal (z-score),[20],-0.307
same,glycan array binding signal (z-score),[21],-0.31
same,glycan array binding signal (z-score),[22],-0.302
same,glycan array binding signal (z-score),[23],-0.305
same,glycan array binding signal (z-score),[24],-0.29
same,glycan array binding signal (z-score),[25],-0.303
same,glycan array binding signal (z-score),[26],-0.305
same,glycan array binding signal (z-score),[27],-0.308
same,glycan array binding signal (z-score),[28],-0.311
same,glycan array binding signal (z-score),[29],-0.31
same,glycan array binding signal (z-score),[30],-0.309
same,glycan array binding signal (z-score),[31],-0.31
same,glycan array binding signal (z-score),[32],-0.309
same,glycan array binding signal (z-score),[33],-0.306
same,glycan array binding signal (z-score),[34],-0.306
same,glycan array binding signal (z-score),[35],-0.305
same,glycan array binding signal (z-score),[36],-0.31
same,glycan array binding signal (z-score),[37],-0.307
same,glycan array binding signal (z-score),[38],-0.305
same,glycan array binding signal (z-score),[39],3.25
same,glycan array binding signal (z-score),[40],3.49
same,glycan array binding signal (z-score),[41],2.8
same,glycan array binding signal (z-score),[42],2.98
